# Measured values reported in PubChem BioAssay AID504332 (National Center for Advancing Translational Sciences (NCATS), 2011).
# Hit rate of the full screen: of about 350,000 compounds, about 31,000 (8.9%) were called active. Inconclusive results, whose numbers are uncertain, are shown with a selection of clear calls. The call rests on the fitted dose curve; in most records, active means well fitted inhibition curve with a large enough effect; inconclusive means small, poorly fitted or top-dose-only effect; inactive means no such curve, though single readings can be large or run the other way. Potencies beside an inconclusive call are fits to weak or partial responses and may not hold up.
# Biological target: Histone-lysine N-methyltransferase EHMT2 (Homo sapiens) (UniProt Q96KQ7)
# Chain of UniProt Q96KQ7 (Q96KQ7 whole entry, looked up): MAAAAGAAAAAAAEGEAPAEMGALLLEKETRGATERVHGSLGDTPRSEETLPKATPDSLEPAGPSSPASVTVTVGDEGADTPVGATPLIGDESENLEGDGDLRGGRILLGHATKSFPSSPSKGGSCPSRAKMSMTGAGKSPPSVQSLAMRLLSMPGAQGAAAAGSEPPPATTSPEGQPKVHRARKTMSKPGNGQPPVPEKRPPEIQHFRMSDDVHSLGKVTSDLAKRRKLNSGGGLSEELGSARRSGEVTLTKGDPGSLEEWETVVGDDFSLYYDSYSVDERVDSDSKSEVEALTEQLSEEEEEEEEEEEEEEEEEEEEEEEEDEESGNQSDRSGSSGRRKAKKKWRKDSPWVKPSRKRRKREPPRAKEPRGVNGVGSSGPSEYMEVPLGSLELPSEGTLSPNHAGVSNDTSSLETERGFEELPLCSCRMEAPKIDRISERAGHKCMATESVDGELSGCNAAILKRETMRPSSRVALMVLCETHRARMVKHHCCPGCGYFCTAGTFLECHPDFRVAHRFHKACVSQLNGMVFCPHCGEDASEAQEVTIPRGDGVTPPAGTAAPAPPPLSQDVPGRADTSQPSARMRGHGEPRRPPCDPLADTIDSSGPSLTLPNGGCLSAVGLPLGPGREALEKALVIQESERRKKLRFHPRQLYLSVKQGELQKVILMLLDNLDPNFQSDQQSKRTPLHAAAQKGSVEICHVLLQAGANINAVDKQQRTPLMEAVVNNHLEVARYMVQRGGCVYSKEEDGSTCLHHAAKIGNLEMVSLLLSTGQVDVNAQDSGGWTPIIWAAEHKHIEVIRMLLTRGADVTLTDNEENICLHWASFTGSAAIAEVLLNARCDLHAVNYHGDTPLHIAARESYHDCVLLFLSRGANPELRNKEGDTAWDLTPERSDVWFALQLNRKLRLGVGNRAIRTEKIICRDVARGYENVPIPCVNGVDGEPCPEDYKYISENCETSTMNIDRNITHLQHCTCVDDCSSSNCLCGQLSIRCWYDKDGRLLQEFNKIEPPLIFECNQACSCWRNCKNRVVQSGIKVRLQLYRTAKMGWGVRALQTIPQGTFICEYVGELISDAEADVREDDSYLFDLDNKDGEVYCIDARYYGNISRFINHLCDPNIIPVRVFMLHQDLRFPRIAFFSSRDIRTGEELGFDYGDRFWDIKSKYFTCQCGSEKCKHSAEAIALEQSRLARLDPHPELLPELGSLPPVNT
# Assay: qHTS Assay for Inhibitors of Histone Lysine Methyltransferase G9a; further: nearly all actives have a fitted effect of over 75% in size
# Details: G9a H3K9 monomethylation, AlphaScreen, 2 h; activity, negative = inhibition: at 59 µM (top of the series) unless noted
# Summary of the method: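 Step 1: enzyme (final 20 nM) with compound, 15 min RT. Step 2: substrate peptide 500 nM and SAM 20 uM, 2 h RT. Step 3: anti-H3K9me1 antibody and AlphaScreen beads, 10 min, then plate read.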
# On the % scale 0 is the no-effect control and ±100 the full control effect; potency means the concentration at half of the fitted maximal effect; tags describe the fitted curve by direction and shape.
Structure (SMILES),"activity, negative = inhibition",Potency
CCCCC1=CC2=CC(=O)C(C)(OC(=O)CC)C(=O)C2=CN1c1ccc(OC)cc1 (centres undefined),inactive: -30.9%,–
COC(=O)c1ccc2c(c1)N(Cc1nc(-c3cccc(C)c3)oc1C)C(=O)C1CCCN21 (centres undefined),–,"inconclusive: 79.4 µM [inhibitor, single point]"
CN(Cc1cc(=O)n2ccsc2n1)Cc1nc2ccccc2c(=O)[nH]1,–,"inconclusive: 11.2 µM [inhibitor, partial curve, poor fit]"
COc1ccc(N2CCN(C(CNS(=O)(=O)c3cc(F)ccc3F)c3cccnc3)CC2)cc1 (centres undefined),–,active: 44.7 µM
CC(C)C(=O)Nc1cccc(C(=O)Nc2nnc(CC(C)(C)C)s2)c1,inactive: -29.7%,–
O=C(NC(=S)Nc1ccc(S(=O)(=O)Nc2nccs2)cc1)c1ccc(F)c(F)c1,–,"inconclusive: 1.12 µM [inhibitor, full curve]"
CCC(=O)Nc1ccc(C(=O)CSc2nnc(-c3ccccc3F)n2CCc2ccccc2)cc1,–,"inconclusive: 25.1 µM [inhibitor, single point]"
CCOc1nc(N2CCOCC2)nc(C)c1[N+](=O)[O-],–,"inconclusive: 0.891 µM [inhibitor, partial curve, poor fit]"
CCN(CCNC(=O)c1ccc(CSc2nc3ccncc3[nH]2)cc1)c1ccccc1,–,active: 44.7 µM
COCc1c(C(=O)OCC(=O)Nc2ccc(OC(F)F)cc2)oc2ccccc12,inactive: -14.1% [at 12.7 µM],–
COc1cc2[nH]c(=S)nc(NCc3cccc(Cl)c3)c2cc1OC,inactive: -41.2% [at 102 µM],–
CCOc1ccc(CNC(=O)c2ccc3c(c2)nnn3C2CCCC2)cc1,inactive: 7.24%,–
CC(CCc1ccccc1)NC(=O)C1CCN(C(=O)c2sccc2-n2cccc2)CC1 (centres undefined),–,"inconclusive: 100 µM [inhibitor, single point]"
Cc1cc(C(=O)NCCN2CCN(c3cccc(Cl)c3)CC2)n(-c2ccccc2)n1,–,"inconclusive: 89.1 µM [inhibitor, single point]"
COc1cc(C(=O)N2C(=O)c3cccc(N)c3C2=O)cc(OC)c1OC,–,"inconclusive: 56.2 µM [inhibitor, partial curve]"
COc1ccc(NC(=O)c2c(NCc3cccs3)sc3c2CCCC3)cc1,–,active: 14.1 µM
CN(CCNC(=O)c1ccc(CS(=O)(=O)c2c(Cl)cccc2Cl)o1)CCc1ccccc1,–,"inconclusive: 89.1 µM [inhibitor, single point]"
CSCC[C@H](NC(=O)Nc1ccc(C)cc1C)C(=O)O,–,"inconclusive: 89.1 µM [inhibitor, single point]"
COc1cc2c(cc1OC)-c1cc(Nc3ccc(C(=O)O)cc3)nc(=O)n1CC2,–,"inconclusive: 50.1 µM [inhibitor, partial curve, poor fit]"
